Laboratory results published in PMC3639976.
No constants are given. Whether binding was seen depends on the method and setting. Binding seen in cells or lysates may run through a third protein. Some binding calls cover weakened binding; strength is not graded here. For some assays here: Sequences can lack the tags named with a protein.

T1: GFP-TAB1 (UniProt Q15750)
T1 sequence: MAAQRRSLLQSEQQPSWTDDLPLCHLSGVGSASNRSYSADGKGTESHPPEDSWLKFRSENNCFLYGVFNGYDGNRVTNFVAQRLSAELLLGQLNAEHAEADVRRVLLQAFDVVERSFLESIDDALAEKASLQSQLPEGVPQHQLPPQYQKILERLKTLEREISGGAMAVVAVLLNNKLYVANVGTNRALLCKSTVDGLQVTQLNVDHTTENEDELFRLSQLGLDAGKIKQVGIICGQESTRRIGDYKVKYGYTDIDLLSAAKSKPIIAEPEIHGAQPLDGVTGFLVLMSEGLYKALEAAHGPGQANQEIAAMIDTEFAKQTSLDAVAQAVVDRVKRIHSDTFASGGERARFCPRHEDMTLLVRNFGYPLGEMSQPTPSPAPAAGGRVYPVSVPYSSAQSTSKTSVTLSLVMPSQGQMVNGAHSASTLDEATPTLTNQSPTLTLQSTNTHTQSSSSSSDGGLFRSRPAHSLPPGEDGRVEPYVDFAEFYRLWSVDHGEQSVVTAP

B1: endogenous TAK1 (protein, UniProt O43318 1-606)
chain: MSTASAASSSSSSSAGEMIEAPSQVLNFEEIDYKEIEVEEVVGRGAFGVVCKAKWRAKDVAIKQIESESERKAFIVELRQLSRVNHPNIVKLYGACLNPVCLVMEYAEGGSLYNVLHGAEPLPYYTAAHAMSWCLQCSQGVAYLHSMQPKALIHRDLKPPNLLLVAGGTVLKICDFGTACDIQTHMTNNKGSAAWMAPEVFEGSNYSEKCDVFSWGIILWEVITRRKPFDEIGGPAFRIMWAVHNGTRPPLIKNLPKPIESLMTRCWSKDPSQRPSMEEIVKIMTHLMRYFPGADEPLQYPCQYSDEGQSNSATSTGSFMDIASTNTSNKSDTNMEQVPATNDTIKRLESKLLKNQAKQQSESGRLSLGASRGSSVESLPPTSEGKRMSADMSEIEARIAATTAYSKPKRGHRKTASFGNILDVPEIVISGNGQPRRRSIQDLTVTGTEPGQVSSRSSSPSVRMITTSGPTSEKPTRSHPWTPDDSTDTNGSDNSIPMAYLTLDHQLQPLAPCPNSKESMAVFEQHCKMAQEYMKVQTEIALLLQRKQELVAELDQDEKDQQNTSRLVQEHKKLLDENKSLSTYYQQCKKQLEVIRSQQQKRQGTS
B2: 3xFLAG-PPARβ/δ 166–440 (domain or fragment, UniProt P35396 166-440)
chain: QHNPQLADLKAFSKHIYNAYLKNFNMTKKKARSILTGKSSHNAPFVIHDIETLWQAEKGLVWKQLVNGLPPYNEISVHVFYRCQSTTVETVRELTEFAKNIPNFSSLFLNDQVTLLKYGVHEAIFAMLASIVNKDGLLVANGSGFVTHEFLRSLRKPFSDIIEPKFEFAVKFNALELDDSDLALFIAAIILCGDRPGLMNVPQVEAIQDTILRALEFHLQVNHPDSQYLFPKLLQKMADLRQLVTEHAQMMQWLKKTESETLLHPLLQEIYKDMY

Tests used:
3xFLAG-PPARβ/δ (mouse) = 3xFLAG-PPARβ/δ (mouse) (UniProt P35396); assay: co-IP; HEK293T cells transfected, fractionated; cytoplasmic fraction; pulldown with an antibody against FLAG; immunoblotting
GFP-TAB1 = target: T1, GFP-TAB1; assay: co-IP; HEK293IL-1R cells transfected, GFP-TAK1 or GFP-TAB1 alone (no co-expressed MYC-TAB1); pulldown with GFP-Trap_A agarose beads, 2 h at 4°C, washes with lysis buffer (0,5 M NaCl); immunoblotting

Binder	binding (3xFLAG-PPARβ/δ (mouse))	binding (GFP-TAB1)
B1	binds	–
B2	–	binds
